Data: PubChem BioAssay AID651820 (National Center for Advancing Translational Sciences (NCATS), 2012)
About 12,000 (3.5%) of roughly 340,000 compounds were called active. This list was built around the results that the source calls inconclusive (neither active nor inactive); the mix of calls is not that of the screen. Calls follow the shape of the dose curve; as a rule, active = well fitted inhibition curve with a large enough effect; inconclusive = small, poorly fitted or top-dose-only effect, or another doubt; inactive = no such curve, though single readings can be large or run the other way. No potency is given beside an inconclusive call; the fits are too rough.
Potency is read from the fitted curve at half-maximal effect; tags tell the direction and shape of the fitted curve.

Assay: qHTS Assay for Inhibitors of Hepatitis C Virus (HCV)
Conditions: Huh7.5.1 HCVcc-Cre (HCVcc is cell-culture hepatitis C virus) infection, luciferase reporter, 44 h; series mostly up to 41.8 µM
Method in brief: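 Reporter virus HCVcc-Cre (~0.5 moi) infects cells exposed to compound; seeding density 1,000 cells/well with 4 h settling beforehand. Luminescence, 15 sec read, taken 44 h post-infection following a 15 min RT substrate incubation.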
With `Cc1noc(C)c1C(=O)NCCCN1CCCC1=O` the Potency was inconclusive [inhibitor, single point].
For `c1cncc(-c2nc(-c3ccco3)cs2)c1`, the Potency was “inactive”.
For `CN(C)CCNc1nc2sc3c(c2c(=O)n1-c1ccc(F)cc1)CCCCC3`, the Potency was inconclusive [inhibitor, single point].
In the case of `Cc1ccc2nc(N(CCN3CCOCC3)C(=O)CCS(=O)(=O)c3ccccc3)sc2c1`, the Potency is reported as “inactive”.
For `CC(=O)N1CCOc2ccc(S(=O)(=O)N3CCN(c4cccc(C(F)(F)F)c4)CC3)cc21`, the Potency was inconclusive [inhibitor, single point].
For `COc1cccc(/C=N/NC(=O)CCn2nnc3ccccc32)c1`, the Potency was inconclusive [inhibitor, full curve].
With `CCc1ccc(C(=O)C(C)OC(=O)Cc2n[nH]c(=O)c3ccccc23)cc1` (stereo not given) the Potency was inconclusive [inhibitor, partial curve].
For `COC(=O)c1cccc(COC(=O)c2cccnc2SC)c1`, the Potency was inconclusive [inhibitor, single point].
In the case of `S=c1[nH]nc(-c2cc(-c3ccccc3)n[nH]2)n1/N=C/C(Br)=C/c1ccccc1`, the Potency is reported as inconclusive [inhibitor, single point].
In the case of `C=CCn1cc(-c2ccc(Cl)cc2)cc(C#N)c1=O`, the Potency is reported as “inactive”.
For `Cc1cccc2cc(CN(CC3CCCO3)C(=O)NC3CCCCC3)c(=O)[nH]c12` (stereo not given), the Potency was “inactive”.
For `CCCc1nn(C)c(C(=O)Nc2cccc(Cl)c2)c1Cl`, the Potency was inconclusive [inhibitor, single point].
In the case of `COc1ccc(C(=O)COC(=O)CN2CC(=O)Oc3ccccc32)cc1Br`, the Potency is reported as inconclusive [inhibitor, full curve, poor fit].
For `CCOC(=O)c1ccc(NC(=O)NC2CC3CCC(C2)N3Cc2nnnn2Cc2ccco2)cc1` (stereo not given), the Potency was inconclusive [inhibitor, partial curve].
In the case of `COc1ccc2c(c1)Sc1ccccc1N2`, the Potency is reported as inconclusive [inhibitor, single point].
With `O=S(=O)(c1ccccc1)c1nc(-c2ccc(F)cc2)oc1NCC1CCCO1` (stereo not given) the Potency was inconclusive [inhibitor, partial curve].
For `CCCC(=O)Nc1c(-c2ccccc2)c(=O)c(C)nn1-c1ccc(C)cc1`, the Potency was “inactive”.
With `Cc1cc(-c2ccc(Br)cc2)n[nH]1` the Potency was inconclusive [inhibitor, single point].
In the case of `Cc1ccc(C(=O)N(CC(=O)NC2CCCC2)c2cccc(F)c2)s1`, the Potency is reported as inconclusive [inhibitor, single point].
With `CCCN1CNc2c(c(=O)[nH]c(=S)n2CCc2ccc(OC)c(OC)c2)C1` the Potency was inconclusive [inhibitor, partial curve].
In the case of `CCn1c(SCCC(C)C)nnc1-c1c[nH]c2ccccc12`, the Potency is reported as inconclusive [inhibitor, single point].
With `COc1ccc(NC(=O)CN(C)C(=O)CSc2nc3ccccc3s2)cc1` the Potency was “inactive”.
With `O=C(CNC(=O)N1CC(=O)Nc2ccccc21)Nc1cc(Cl)ccc1Cl` the Potency was inconclusive [inhibitor, single point].
In the case of `COc1ccc(-c2sc3ccccc3c2-c2ccc(OCCN(C)C)cc2)cc1`, the Potency is reported as inconclusive [inhibitor, full curve].
For `CN(Cc1ccon1)C(=O)CC1C(=O)NCCN1Cc1ccccc1C(F)(F)F` (stereo not given), the Potency was “inactive”.
In the case of `COC(=O)c1ccc(NC(=O)c2ccc3c(c2)OCO3)cc1`, the Potency is reported as inconclusive [inhibitor, partial curve].
For `CCOc1ccc(NC(=O)CSC(N)=O)cc1`, the Potency was inconclusive [inhibitor, single point].
For `Cc1ccc2nc3sc(C(=O)N4CCCc5ccccc54)c(N)c3cc2c1`, the Potency was inconclusive [inhibitor, partial curve].
With `O=C(CSc1nccc(-c2cccs2)n1)Nc1cccc(Cl)c1Cl` the Potency was inconclusive [inhibitor, full curve, poor fit].
With `O=C(Nc1sc2c(c1C(=O)O)CCCC2)C(=O)N1CCOCC1` the Potency was “inactive”.
In the case of `COc1cc(C(=O)Nc2ccc3ccccc3c2)cc(OC)c1OC`, the Potency is reported as inconclusive [inhibitor, full curve].
For `Cc1ccc(NC(=O)c2oc(=O)c3ccccc3c2-c2ccccc2)c(C)c1`, the Potency was inconclusive [inhibitor, partial curve].
For `COc1ccc2cc3c(N)nn(C(=O)c4ccccc4Cl)c3nc2c1`, the Potency was inconclusive [inhibitor, partial curve].
In the case of `CC(=O)O[C@]1(C(C)=O)CC[C@H]2[C@@H]3C=C(Cl)C4=CC(=O)CC[C@]4(C)[C@H]3CC[C@@]21C`, the Potency is reported as inconclusive [inhibitor, partial curve, poor fit].
For `COc1ccc(C(=O)C(C)N(C(=O)c2ccc(Cl)cc2Cl)N2C(=O)C3C4C=CC(C4)C3C2=O)cc1` (stereo not given), the Potency was “inactive”.
For `CCCN1CNC(=S)N(c2ccccc2C)C1`, the Potency was “inactive”.
In the case of `CC1CC(C)CN(C(=O)C2CC(=O)N(c3ccc4c(c3)OCCO4)C2)C1` (stereo not given), the Potency is reported as “inactive”.
In the case of `Cc1cc(C)nc(Sc2nc(Cl)nc(N(c3ccccc3)c3ccccc3)n2)n1`, the Potency is reported as inconclusive [inhibitor, partial curve, poor fit].
For `CCOC(=O)c1cc([N+](=O)[O-])c([N+](=O)[O-])cc1NC(C)=O`, the Potency was inconclusive [inhibitor, single point].
For `COC(=O)C1=CN(Cc2ccc(C)cc2)C=C(C(=O)OC)C1c1ccc(F)c(F)c1`, the Potency was inconclusive [inhibitor, single point].
For `CN(CC(=O)Nc1ccccc1Cl)CC(=O)N1CCc2ccccc21`, the Potency was “inactive”.
In the case of `COc1cccc(C2N(Cc3ccccc3)C(=O)C2(F)F)c1OC` (stereo not given), the Potency is reported as “inactive”.
With `COc1ccccc1NC(=O)CC(c1ccc(F)cc1)c1ccco1` (stereo not given) the Potency was “inactive”.
For `Cc1ccc(C)c(C(=O)COc2ccccc2[N+](=O)[O-])c1`, the Potency was “inactive”.
For `CCOC(=O)c1c(NC(=O)C2COc3ccccc3O2)sc(C(C)=O)c1C` (stereo not given), the Potency was inconclusive [inhibitor, full curve].
